This note sets out measurements from article PMC4336329 (PLoS ONE, 2015).

SMILES strings stand for the structures. In all, about 310,000 compounds went through this assay and about 14,000 (4.5%) showed an effect of 50% or more. Effects have a minus sign here. The list shows a part of the results.
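Also: peak tail current of the secondary pulse compared with the same well before compound.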

In this experiment the target is human ether-à-go-go-related gene (hERG) potassium channel (human, UniProt Q12809). The experiment is described as follows: primary screen, population patch clamp on CHO cells stably expressing hERG.
Chain of human ether-à-go-go-related gene (hERG) potassium channel (Q12809 whole entry, looked up): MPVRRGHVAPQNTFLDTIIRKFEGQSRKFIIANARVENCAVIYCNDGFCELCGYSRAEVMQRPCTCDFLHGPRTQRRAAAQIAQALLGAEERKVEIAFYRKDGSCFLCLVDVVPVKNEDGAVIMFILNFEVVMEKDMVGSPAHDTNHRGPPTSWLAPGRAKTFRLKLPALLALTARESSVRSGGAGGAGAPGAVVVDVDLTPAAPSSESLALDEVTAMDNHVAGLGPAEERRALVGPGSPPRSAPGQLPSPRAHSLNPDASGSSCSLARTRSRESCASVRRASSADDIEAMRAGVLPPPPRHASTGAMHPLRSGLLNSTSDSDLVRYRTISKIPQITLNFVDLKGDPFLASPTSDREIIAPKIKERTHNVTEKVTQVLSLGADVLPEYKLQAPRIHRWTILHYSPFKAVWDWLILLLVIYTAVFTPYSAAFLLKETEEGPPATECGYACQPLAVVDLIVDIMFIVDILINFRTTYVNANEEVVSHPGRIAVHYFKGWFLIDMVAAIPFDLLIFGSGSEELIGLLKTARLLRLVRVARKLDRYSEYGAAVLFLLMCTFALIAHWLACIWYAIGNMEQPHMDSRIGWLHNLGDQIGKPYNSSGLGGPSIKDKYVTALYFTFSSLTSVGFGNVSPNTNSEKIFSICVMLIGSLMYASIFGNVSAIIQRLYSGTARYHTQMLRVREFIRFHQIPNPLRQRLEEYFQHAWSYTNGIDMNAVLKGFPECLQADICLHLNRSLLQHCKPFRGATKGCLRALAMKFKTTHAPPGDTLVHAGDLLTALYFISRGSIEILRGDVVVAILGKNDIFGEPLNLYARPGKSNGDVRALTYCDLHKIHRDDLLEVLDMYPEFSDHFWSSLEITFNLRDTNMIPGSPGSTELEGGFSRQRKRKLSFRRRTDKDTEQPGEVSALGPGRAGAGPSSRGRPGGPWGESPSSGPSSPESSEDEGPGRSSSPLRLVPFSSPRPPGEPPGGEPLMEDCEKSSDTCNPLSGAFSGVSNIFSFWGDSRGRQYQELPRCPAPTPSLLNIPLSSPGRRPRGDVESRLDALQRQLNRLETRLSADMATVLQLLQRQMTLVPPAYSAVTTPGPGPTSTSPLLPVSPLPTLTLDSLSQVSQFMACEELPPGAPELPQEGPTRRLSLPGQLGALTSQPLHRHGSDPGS
On to `CC(=O)c1ccc(OC(NC(=O)c2ccco2)C(Cl)(Cl)Cl)cc1` (stereo not shown), for which the “hERG current change (%, negative = inhibition) at 10uM” value is -7.17%.
Consider `O=C(Nc1ccc(F)cc1)C1CCCN1S(=O)(=O)c1cccc2nsnc12` (stereo not shown), for which the “hERG current change (%, negative = inhibition) at 10uM” value is -29.6%.
As for `CC(Sc1nnnn1C)C(=O)Nc1ccccc1` (stereo not shown), the figure is 7.29%.
For `CC1(C)C(=O)Nc2ccccc2N1C(=O)CSc1nnc2c(Cl)cc(Cl)cn12`, the “hERG current change (%, negative = inhibition) at 10uM” value is reported as -1.93%.
As for `N#Cc1ccc(Oc2cccc(C(=O)O)c2)cc1C#N`, the figure is 1.48%; as for `CSc1cccc(CNC(=O)CC2C(=O)NCCN2CC(C)(C)C)c1` (stereo not shown), 2.77%.
As for `O=C(CSc1nc(Nc2ccccc2)nc(N2CCOCC2)n1)N1CCc2ccccc21`, the figure is -1.62%.
For the compound `Cc1cc(C)n2nc(CCCCc3nc4nc(C)cc(C)n4n3)nc2n1`, the “hERG current change (%, negative = inhibition) at 10uM” value is 9.77%.
As for `CS(=O)(=O)N1CCC(C(=O)Nc2ccccc2Sc2ccccc2)CC1`, the figure is -32.2%; as for `O=C(/C=C/c1cccc([N+](=O)[O-])c1)NCC1CCCO1` (stereo not shown), -7.23%.
`O=C(CSc1ccc(Cl)cc1)NC1CCCC1`: the “hERG current change (%, negative = inhibition) at 10uM” value was determined as 4.47%.
Turning to `Cc1nc(-c2ccc3c(c2)OCCCO3)cs1`, the “hERG current change (%, negative = inhibition) at 10uM” value is listed as 4.21%.
As for `N#Cc1ccc(Oc2nc(C(N)=O)cc(-c3ccccc3)n2)cc1`, the “hERG current change (%, negative = inhibition) at 10uM” value is reported as -11.3%.
To `CCOc1cc2[nH]c(=O)n(CCCN3CCCC3=O)c(=O)c2cc1OCC` belongs -6.1%; to `CCOC(=O)N1CCN(CC(O)COCc2ccccc2)CC1.Cl` (stereo not shown), -4.06%.
To `COc1cc(/C=C2\SC(=S)N(Nc3ncc(C(F)(F)F)cc3Cl)C2=O)ccc1O` belongs 5.23%.
As for `O=C1N(Cc2cccc(Cl)c2)C[C@@H]2C[C@@H](c3ccc4nonc4c3)N3CCC[C@@]123`, the figure is -55.1%; as for `CC1(C)NC(=O)N(CCOc2ccc([N+](=O)[O-])cc2)C1=O`, -37.6%; as for `CC(=O)c1cccc(NC(=S)NC(=O)c2ccc(Cl)cc2)c1`, -23.6%.
`CCOc1ccc(CCNC(=O)c2cccnc2N2CCCC2)cc1OCC`: the “hERG current change (%, negative = inhibition) at 10uM” value worked out at 13.2%.
To `O=S(=O)(Cc1ccc(Cl)cc1)NCc1ccc2c(c1)OCO2` belongs 1.12%; to `O=C(CSc1n[nH]c(-c2ccc(Cl)cc2Cl)n1)Nc1ccccn1`, 3.25%.
To `Cc1ccc2c(c1)c(N=NC(N)=S)c(O)n2Cc1ccccc1` belongs -1.71%.
Take `COc1cccc(/C=N/N(C)C2=NS(=O)(=O)c3ccccc32)c1O`: the “hERG current change (%, negative = inhibition) at 10uM” value came to 11.8%.
As for `COc1ccccc1-c1c(C)nn2c(-c3ccccc3)cc(C)nc12`, the figure is 3.05%; as for `Cc1ccccc1C(=O)NC1CCN(CC(=O)NCc2cccs2)CC1`, 6.14%; as for `CCOC(=O)C1=C(COC(=O)CC(C)c2ccccc2)NC(=O)NC1C` (stereo not shown), -17.8%.
As for `Cc1ccc([N+](=O)[O-])c(NC(=O)COC(=O)C2CC3CCCC(C2)C3=O)c1C` (stereo not shown), the figure is 13.8%.
Regarding `Cn1c(=O)oc2cc(S(=O)(=O)N3CCC(C(=O)Nc4ccc(OC(F)(F)F)cc4)CC3)ccc21`, the “hERG current change (%, negative = inhibition) at 10uM” value is -6.62%.
On to `COc1ccc(C(=O)N2CCNC(=O)C2CC(=O)Nc2ccc(C)c(C)c2)cc1` (stereo not shown), for which the “hERG current change (%, negative = inhibition) at 10uM” value was determined as 6.3%.
On to `Cc1ccc(C(=O)CC2SC(N)=NC2=O)cc1` (stereo not shown), for which the “hERG current change (%, negative = inhibition) at 10uM” value was found to be 2.21%.
`NS(=O)(=O)c1ccc(-c2ccc(C=NC3CCS(=O)(=O)C3)o2)cc1` (stereo not shown): the “hERG current change (%, negative = inhibition) at 10uM” value amounted to 6.63%.
`O=[N+]([O-])c1cccc(S(=O)(=O)NCCc2ccccc2)c1`: the “hERG current change (%, negative = inhibition) at 10uM” value came out at 0.681%.
As for `CCc1cc[n+](-c2nc3ccccc3nc2[N-]S(=O)(=O)c2ccc(Br)s2)cc1`, the figure is -37%; as for `CCN(CC)C(=O)COC(=O)c1ccc(O)cc1`, 7.43%; as for `CCC(CC)NC(=O)Nc1ccccc1C(F)(F)F`, -2.77%.
As for `O=C(NCc1nc2ccccc2[nH]1)c1ccco1`, the figure is 11.2%.
To `CC(NC(=O)c1ccccc1NC(=O)c1ccco1)C(=O)O` (stereo not shown) belongs -1.62%; to `CC(=O)c1ccc(Oc2cc(C)nc(-n3nc(C)cc3C)n2)cc1`, -59.9%.
As to `O=C(CNC(=O)c1ccc(N2C(=O)c3ccccc3C2=O)cc1)OCC(=O)c1ccccc1`, the “hERG current change (%, negative = inhibition) at 10uM” value worked out at 17.3%.
`CCOC(=O)/C=C1\SCC(=O)N1CC(=O)Nc1cccc(F)c1`: the “hERG current change (%, negative = inhibition) at 10uM” value is -7.96%.
As for `COC(=O)CC1COc2ccccc2N1C(=O)c1ccc(C(C)(C)C)cc1` (stereo not shown), the “hERG current change (%, negative = inhibition) at 10uM” value was -0.791%.
Regarding `Cc1nc2nc(SCC(=O)N3CCOCC3)nn2c(C)c1Cc1ccccc1`, the “hERG current change (%, negative = inhibition) at 10uM” value was -12.1%.
With `COC(=O)c1cn(Cc2c(C)cc(C)cc2C)nn1`, the “hERG current change (%, negative = inhibition) at 10uM” value is on record as -4.66%.
To `Cc1cc(C)[n+](Cc2ccccc2)cc1C(N)=O.[Cl-]` belongs 16.6%; to `Cc1nc(C)c(C(=O)C2=C(O)C(=O)N(CCN3CCOCC3)C2c2ccco2)s1` (stereo not shown), 11.2%.
